Experimental data published in patent US7923016 (MEDICAL COLLEGE OF WISCONSIN RESEARCH FOUNDATION, dated 2011).

Biological target: CXC chemokine receptor 4 (CXCR4) on THP-1 cells (UniProt P61073 1-352, limits assumed)
Assay: cell-based or functional assay

Sequence of UniProt P61073 (P61073 whole entry): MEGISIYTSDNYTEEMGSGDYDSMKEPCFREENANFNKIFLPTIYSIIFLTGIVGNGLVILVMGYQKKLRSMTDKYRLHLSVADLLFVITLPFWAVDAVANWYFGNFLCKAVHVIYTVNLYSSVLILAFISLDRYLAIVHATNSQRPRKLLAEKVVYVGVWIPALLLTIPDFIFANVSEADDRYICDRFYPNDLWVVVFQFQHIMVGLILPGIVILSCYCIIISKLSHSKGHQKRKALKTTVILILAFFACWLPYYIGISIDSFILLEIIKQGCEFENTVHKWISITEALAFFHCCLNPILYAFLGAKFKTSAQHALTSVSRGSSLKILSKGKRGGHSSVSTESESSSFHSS

EC50, CXCR4 activation, Ca2+-flux in THP-1 cells: 12.9 nM | IC50, inhibition of THP-1 chemotaxis induced by wild-type CXCL12-α (10 nM): ~4 nM
B1: CXCL12-α2 (L36C/A65C) locked dimer polypeptide (ligand)
chain: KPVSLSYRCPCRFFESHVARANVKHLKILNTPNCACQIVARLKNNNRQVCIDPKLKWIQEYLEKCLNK
